Whole data set: some 33,000 sequences, median “E-score (-0.5 to 0.5)” near -0.016, cut for the highest 2% near 0.31. The list shows a part of the results.
Biological target: Cst6 (UniProt P40535)
Test: PBM E-score (8-mer binding enrichment) (E-score (-0.5 to 0.5)); higher = stronger / more preferred TF binding; most listed sequences are background and not binding sites
Settings: protein concentration: 200 nM; construct: GST-DNA-binding domain
Protocol: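 Universal 'all 10-mer' protein binding microarrays (Agilent AMADID 015681) probed with GST-tagged S. cerevisiae TFs (full-length or DBD) made by in vitro transcription/translation (PURExpress), about 100-200 nM. Bound TF was detected with fluorescent anti-GST. Each ungapped 8-mer (which stands for itself and its reverse complement) is scored by the PBM enrichment score (E-score), a modified Wilcoxon-Mann-Whitney statistic from -0.5 to +0.5, computed with the Universal PBM Analysis Suite. Scale: above 0.35 generally sequence-specific binding.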

| Sequence | PBM E-score |
| --- | --- |
| ACCCGGGA | -0.226 |
| CACAATCG | 0.0369 |
| GAAACAGC | -0.187 |
| CCGCTAAC | -0.053 |
| TAGGCGCA | -0.0585 |
| CCATGGCA | -0.102 |
| CCTGCTAC | -0.178 |
| ACAGAACA | 0.0685 |
| ACTCCGCA | -0.133 |
| ATCACAGC | 0.222 |
| AATGGGCC | -0.21 |
| CCCTGATC | -0.167 |
| CTGTCATA | 0.186 |
| ACCGGTCG | -0.323 |
| CCCATCAC | -0.118 |
| CGAGAAGC | -0.105 |
| CTCAACAG | -0.0624 |
| CTATCTTA | 0.0343 |
| GCTAAATA | 0.166 |
| CCGGGTGC | -0.247 |
| CAAATGTA | 0.221 |
| GGAGTTAC | -0.053 |
| GACGATTA | 0.227 |
| CCGACCCG | -0.0987 |

| Sequence | PBM E-score |
| --- | --- |
| GAAGACGC | -0.0955 |
| CACCCCGG | -0.19 |
| AATCACAC | 0.188 |
| AGGTTACT | -0.0856 |
| CAATATCA | 0.126 |
| GTCAGAAC | 0.0593 |
| CAGCGGAA | -0.0792 |
| AATGGCAG | -0.0875 |
| ACATAACA | 0.227 |
| AGGTGACA | 0.278 |
| ATATTTGA | 0.166 |
| ATGCCTTA | 0.157 |
| AGTCACCA | 0.0433 |
| AATCATGT | 0.139 |
| GGTCCTCA | -0.147 |
| GCCCATGA | 0.0245 |
| GCACGCCC | -0.178 |
| GAGTTTGC | -0.0936 |
| CTAAGCTC | -0.152 |
| ACGGCCCT | -0.051 |
| ATGGTGCG | -0.135 |
| CACTTAAG | 0.17 |
| AGGATTCG | 0.028 |
| AGCTTCGA | -0.0845 |

| Sequence | PBM E-score |
| --- | --- |
| CATGAGTA | 0.0546 |
| TCTGGACA | -0.209 |
| ACTGTCTC | -0.135 |
| ACTTAAGT | 0.244 |
| ATTGTGCG | 0.122 |
| ACAGAGCG | -0.0159 |
| GAGGGGAC | -0.207 |
| CGATTAAC | 0.0578 |
| CATTACCG | 0.073 |
| ACAGACCG | -0.139 |
| ACACATCA | 0.177 |
| CCCGTCTA | 0.00216 |
| GGGCAAAA | -0.0509 |
| ACGGGCAT | -0.12 |
| GAACGCTA | -0.196 |
| GCAGGGAC | -0.2 |
| GCTAGAGC | -0.0947 |
| GTATAGCA | 0.163 |
| CCTTCCAA | -0.149 |
| CATAGGCG | -0.0502 |
| TACACCTA | 0.0217 |
| CACAACAC | 0.124 |
| CAGTCCGG | -0.28 |
| ATTGCTCC | -0.0682 |

| Sequence | PBM E-score |
| --- | --- |
| CTCCATTC | -0.2 |
| CACAGTAC | -0.0711 |
| AAATCATT | 0.137 |
| CTACGGTC | -0.261 |
| CCCTTTTC | 0.0325 |
| AGAATCCC | -0.0334 |
| CTCGGGGC | -0.19 |
| AAAGATTT | 0.0387 |
| CATTCGCC | -0.0704 |
| CGTTATCC | -0.00758 |
| AACAGACC | -0.00805 |
| CAACTCTG | -0.182 |
| CTCGGATC | -0.0879 |
| CCTGACCG | -0.144 |
| ACGCGGTA | -0.0528 |
| GTTCAGTA | 0.0978 |
| GCATATAC | -0.0289 |
| CCGGTGCC | -0.114 |
| ACCTAGCC | -0.24 |
| AGGCTGTG | -0.113 |
| ATGCCATC | 0.239 |
| AACCCGGA | -0.319 |
